According to the supplement of paper PMC8728848:
This is one part of the list.

Assays:
Test in all cases: glycan array binding signal (z-score within array); higher = stronger binding
Conditions in all cases: glycan notation: IUPAC condensed, linker removed
[1] = target: Gal(b1-3)[Fuc(a1-4)]GlcNAc(b1-6)GalNAc
Method in brief: (§1)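 Glycan array data were curated from 3228 arrays in the Consortium for Functional Glycomics database and kept only where the protein sequence was available. Glycan names were converted to IUPAC-condensed notation, and columns mapping to the same glycan were averaged. The binding signal is a within-array Z-score, averaged across arrays of the same protein sequence at different concentrations or buffers and across linkers. Negative Z-scores can be read as non-binding.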

[2] = target: Gal(b1-3)[GlcNAc(b1-6)]GalNAc
Method in brief: as §1

[3] = target: Gal(b1-3)[Neu5Ac(a2-6)]GalNAc
Method in brief: as §1

[4] = target: Gal(b1-3)[Neu5Ac(a2-6)]GlcNAc(b1-4)Gal(b1-4)Glc
Method in brief: as §1

[5] = target: Gal(b1-3)[Neu5Ac(b2-6)]GalNAc
Method in brief: as §1

[6] = target: Gal(b1-4)Gal
Method in brief: as §1

[7] = target: Gal(b1-4)GalNAc(a1-3)[Fuc(a1-2)]Gal(b1-4)GlcNAc
Method in brief: as §1

[8] = target: Gal(b1-4)GalNAc(b1-3)[Fuc(a1-2)]Gal(b1-4)GlcNAc
Method in brief: as §1

[9] = target: Gal(b1-4)Glc
Method in brief: as §1

[10] = target: Gal(b1-4)Glc6S
Method in brief: as §1

[11] = target: Gal(b1-4)GlcNAc
Method in brief: as §1

[12] = target: Gal(b1-4)GlcNAc(a1-6)Gal(b1-4)GlcNAc
Method in brief: as §1

[13] = target: Gal(b1-4)GlcNAc(b1-2)Man
Method in brief: as §1

[14] = target: Gal(b1-4)GlcNAc(b1-2)Man(a1-3)Man(b1-4)GlcNAc(b1-4)GlcNAc
Method in brief: as §1

[15] = target: Gal(b1-4)GlcNAc(b1-2)Man(a1-3)[Gal(b1-4)GlcNAc(b1-2)Man(a1-6)]Man(b1-4)GlcNAc(b1-4)GlcNAc
Method in brief: as §1

[16] = target: Gal(b1-4)GlcNAc(b1-2)Man(a1-3)[Gal(b1-4)GlcNAc(b1-2)Man(a1-6)]Man(b1-4)GlcNAc(b1-4)[Fuc(a1-6)]GlcNAc
Method in brief: as §1

[17] = target: Gal(b1-4)GlcNAc(b1-2)Man(a1-3)[Gal(b1-4)GlcNAc(b1-2)Man(a1-6)][Gal(b1-4)GlcNAc(b1-4)]Man(b1-4)GlcNAc(b1-4)[Fuc(a1-6)]GlcNAc
Method in brief: as §1

[18] = target: Gal(b1-4)GlcNAc(b1-2)Man(a1-3)[Gal(b1-4)GlcNAc(b1-2)Man(a1-6)][GlcNAc(b1-4)]Man(b1-4)GlcNAc(b1-4)[Fuc(a1-6)]GlcNAc
Method in brief: as §1

[19] = target: Gal(b1-4)GlcNAc(b1-2)Man(a1-3)[GlcNAc(b1-2)Man(a1-6)]Man(b1-4)GlcNAc(b1-4)GlcNAc
Method in brief: as §1

[20] = target: Gal(b1-4)GlcNAc(b1-2)Man(a1-3)[GlcNAc(b1-4)][Gal(b1-4)GlcNAc(b1-2)Man(a1-6)]Man(b1-4)GlcNAc(b1-4)GlcNAc
Method in brief: as §1

[21] = target: Gal(b1-4)GlcNAc(b1-2)Man(a1-3)[Man(a1-6)]Man(b1-4)GlcNAc(b1-4)GlcNAc
Method in brief: as §1

[22] = target: Gal(b1-4)GlcNAc(b1-2)Man(a1-6)Man(b1-4)GlcNAc(b1-4)GlcNAc
Method in brief: as §1

[23] = target: Gal(b1-4)GlcNAc(b1-2)Man(a1-6)[GlcNAc(b1-2)Man(a1-3)]Man(b1-4)GlcNAc(b1-4)GlcNAc
Method in brief: as §1

[24] = target: Gal(b1-4)GlcNAc(b1-2)Man(a1-6)[Man(a1-3)]Man(b1-4)GlcNAc(b1-4)GlcNAc
Method in brief: as §1

[25] = target: Gal(b1-4)GlcNAc(b1-2)[Gal(b1-4)GlcNAc(b1-4)]Man(a1-3)[Gal(b1-4)GlcNAc(b1-2)Man(a1-6)]Man(b1-4)GlcNAc(b1-4)GlcNAc
Method in brief: as §1

[26] = target: Gal(b1-4)GlcNAc(b1-2)[Gal(b1-4)GlcNAc(b1-4)]Man(a1-3)[Gal(b1-4)GlcNAc(b1-2)[Gal(b1-4)GlcNAc(b1-6)]Man(a1-6)]Man(b1-4)GlcNAc(b1-4)GlcNAc
Method in brief: as §1

[27] = target: Gal(b1-4)GlcNAc(b1-2)[Gal(b1-4)GlcNAc(b1-4)]Man(a1-3)[GlcNAc(b1-4)][Gal(b1-4)GlcNAc(b1-2)Man(a1-6)]Man(b1-4)GlcNAc(b1-4)GlcNAc
Method in brief: as §1

[28] = target: Gal(b1-4)GlcNAc(b1-2)[Gal(b1-4)GlcNAc(b1-4)]Man(a1-3)[GlcNAc(b1-4)][Gal(b1-4)GlcNAc(b1-2)[Gal(b1-4)GlcNAc(b1-6)]Man(a1-6)]Man(b1-4)GlcNAc(b1-4)GlcNAc
Method in brief: as §1

[29] = target: Gal(b1-4)GlcNAc(b1-2)[Gal(b1-4)GlcNAc(b1-6)]Man(a1-6)[Gal(b1-4)GlcNAc(b1-2)Man(a1-3)]Man(b1-4)GlcNAc(b1-4)GlcNAc
Method in brief: as §1

[30] = target: Gal(b1-4)GlcNAc(b1-2)[Gal(b1-4)GlcNAc(b1-6)]Man(a1-6)[Gal(b1-4)GlcNAc(b1-2)Man(a1-3)]Man(b1-4)GlcNAc(b1-4)[Fuc(a1-6)]GlcNAc
Method in brief: as §1

[31] = target: Gal(b1-4)GlcNAc(b1-2)[Gal(b1-4)GlcNAc(b1-6)]Man(a1-6)[GlcNAc(b1-4)][Gal(b1-4)GlcNAc(b1-2)Man(a1-3)]Man(b1-4)GlcNAc(b1-4)GlcNAc
Method in brief: as §1

[32] = target: Gal(b1-4)GlcNAc(b1-2)[Gal(b1-4)GlcNAc(b1-6)]Man(a1-6)[GlcNAc(b1-4)][Gal(b1-4)GlcNAc(b1-2)[Gal(b1-4)GlcNAc(b1-4)]Man(a1-3)]Man(b1-4)GlcNAc(b1-4)[Fuc(a1-6)]GlcNAc
Method in brief: as §1

[33] = target: Gal(b1-4)GlcNAc(b1-3)Gal(b1-3)GalNAc
Method in brief: as §1

[34] = target: Gal(b1-4)GlcNAc(b1-3)Gal(b1-3)GlcNAc
Method in brief: as §1

[35] = target: Gal(b1-4)GlcNAc(b1-3)Gal(b1-4)Glc
Method in brief: as §1

[36] = target: Gal(b1-4)GlcNAc(b1-3)Gal(b1-4)GlcNAc
Method in brief: as §1

[37] = target: Gal(b1-4)GlcNAc(b1-3)Gal(b1-4)GlcNAc(b1-2)Man(a1-3)[Gal(b1-4)GlcNAc(b1-3)Gal(b1-4)GlcNAc(b1-2)Man(a1-6)]Man(b1-4)GlcNAc(b1-4)GlcNAc
Method in brief: as §1

[38] = target: Gal(b1-4)GlcNAc(b1-3)Gal(b1-4)GlcNAc(b1-2)Man(a1-3)[Gal(b1-4)GlcNAc(b1-3)Gal(b1-4)GlcNAc(b1-2)Man(a1-6)]Man(b1-4)GlcNAc(b1-4)[Fuc(a1-6)]GlcNAc
Method in brief: as §1

B1: PV12658A-bvu-496-32-496 (Bacteroides vulgatus) (protein)
chain: DLDGAITTPAAVELALNGIYYSLPGNGFNVIFPTVSGSFKAGTMWRQEIVSAGNAVYYSERMLPTLSFSDATEWDADYAVIKNANFLETACNRMSDGEFSGNRRAEVLGEIAYLRALAYFNILVRYCEFWDMNSEYGVVMRNEAPSVSNALKARSSVADSYQYILDQLEIAIEKAPDWKKLSQASKEAAKALKARVLLYAGKYTEAVAAVNDAIDTNSPLPEANYGDVFDKFSTTKEILFARVFDQKDATNTSTRQQCYGNSPTKKQGYWGPTNEYVELVGDDPRADAIFSKVDSLMDSRSSAVAYNLKSVKKLLNDANDMPVIFSRVSELYLIKAEALYRSGASISEAYAPIRKLRERAGAEIILPANNEELETAIFNEWMLELSFENWHEWFAMIRFAGYTEKPDFTRLLALNKTLREALEKEYEKSEAQGDNYYQRIIDRRIDAIPSSEISSNLECKQNPGY
- glycan array binding signal (z-score) [1]: 1.6
- glycan array binding signal (z-score) [2]: -0.214
- glycan array binding signal (z-score) [3]: -0.254
- glycan array binding signal (z-score) [4]: 0.29
- glycan array binding signal (z-score) [5]: -0.451
- glycan array binding signal (z-score) [6]: -0.244
- glycan array binding signal (z-score) [7]: -0.089
- glycan array binding signal (z-score) [8]: -0.423
- glycan array binding signal (z-score) [9]: -0.053
- glycan array binding signal (z-score) [10]: -0.062
- glycan array binding signal (z-score) [11]: -0.258
- glycan array binding signal (z-score) [12]: -0.029
- glycan array binding signal (z-score) [13]: -0.103
- glycan array binding signal (z-score) [14]: 0.05
- glycan array binding signal (z-score) [15]: -0.209
- glycan array binding signal (z-score) [16]: -0.276
- glycan array binding signal (z-score) [17]: -0.152
- glycan array binding signal (z-score) [18]: -0.365
- glycan array binding signal (z-score) [19]: 0.012
- glycan array binding signal (z-score) [20]: -0.478
- glycan array binding signal (z-score) [21]: 0.006
- glycan array binding signal (z-score) [22]: -0.401
- glycan array binding signal (z-score) [23]: 0.211
- glycan array binding signal (z-score) [24]: -0.306
- glycan array binding signal (z-score) [25]: 0.241
- glycan array binding signal (z-score) [26]: -0.416
- glycan array binding signal (z-score) [27]: -0.192
- glycan array binding signal (z-score) [28]: -0.422
- glycan array binding signal (z-score) [29]: -0.475
- glycan array binding signal (z-score) [30]: -0.137
- glycan array binding signal (z-score) [31]: -0.161
- glycan array binding signal (z-score) [32]: -0.179
- glycan array binding signal (z-score) [33]: -0.417
- glycan array binding signal (z-score) [34]: -0.494
- glycan array binding signal (z-score) [35]: -0.266
- glycan array binding signal (z-score) [36]: -0.608
- glycan array binding signal (z-score) [37]: 1.18
- glycan array binding signal (z-score) [38]: 0.906
